Reference: patent US6323219A, “Methods for treating immunomediated inflammatory disorders” (Ortho-McNeil Pharmaceutical, Inc., priority 1999, dated 2001)

Columns and labels:
[1] = system: MelanoDerm human epidermal equivalents; experiment: Pigmentation of MelanoDerm epidermal equivalents (DOPA, H&E or F&M staining, image analysis); type: cell-based
[2] = system: human primary melanocytes; experiment: Pigmentation of primary melanocyte cultures; type: cell-based
[3] = system: S91 cells; experiment: Pigmentation of choleratoxin-induced S91 cells; type: cell-based, mouse
[4] = system: Co-cultures (no K-M contact); experiment: Pigmentation of keratinocyte-melanocyte co-cultures without K-M contact; type: cell-based, human; conditions: Table D; three days, DOPA stained on fourth day
[5] = system: TRP-1; experiment: RT-PCR gene expression in MelanoDerm equivalents, TRP-1; type: cell-based, human; conditions: increasing concentrations; FIG. 6A
[6] = system: TRP-2; experiment: RT-PCR gene expression in MelanoDerm equivalents, TRP-2; type: cell-based, human; conditions: increasing concentrations; FIG. 6A
[7] = system: tyrosinase; experiment: RT-PCR gene expression in MelanoDerm equivalents, tyrosinase; type: cell-based, human; conditions: increasing concentrations; FIG. 6A
[8] = system: trypsin; experiment: RT-PCR trypsin expression in MelanoDerm equivalents; type: cell-based, human; conditions: FIG. 6A, 6B
[9] = system: guinea pig nipple pigmentation; experiment: Guinea pig nipple pigmentation, topical, chromameter; type: in vivo; conditions: for lightening effect, L* change: five days/week, 70:30 ethanol:propylene glycol
[10] = system: Yucatan swine skin; experiment: Histology of treated Yucatan swine skin (H&E, F&M); type: in vivo
[11] = system: MelanoDerm equivalents; experiment: Electron microscopy of MelanoDerm equivalents; type: cell-based, human
[12] = system: Yucatan swine skin; experiment: Electron microscopy of treated Yucatan swine skin; conditions: eight weeks of treatment
[13] = system: Yucatan swine skin; experiment: Yucatan swine skin pigmentation, topical, visual/chromameter/histology; conditions: for histological repigmentation: F&M
[14] = Table D, three days, DOPA stained on fourth day

## CN[C@H](Cc1ccccc1)C(=O)N1CCC[C@H]1C(=O)N[C@@H](CCCNC(=N)N)C(=O)c1nc2ccccc2s1 [Compound I]
[1]; MelanoDerm, three days of treatment, stained on fourth day, FIG. 1B, FIG. 2, FIG. 3
  pigmentation/melanogenesis in epidermal equivalents: decreased pigmentation
[1]; [14]
  effect on pigmentation, MelanoDerm (K-M contact): lightening
[1]; increasing concentrations, SLIGRL 0, 10 and 50 μM, Compound I 0.1 μM to 1 μM, FIG. 4A
  pigmentation, dose-response: decreasing pigmentation
[1]; pretreatment with UVB irradiation, FIG. 4B
  UVB-induced pigmentation: able to reduce this UVB-induced pigmentation
[2]; [14]
  effect on pigmentation, Melanocytes (no K): no effect
[2]; melanocytes alone
  level of pigmentation, human primary melanocytes: not affected
[3]
  level of pigmentation, choleratoxin-induced S91 cells: not affected
[4]
  effect on pigmentation, Co-cultures (no K-M contact): no effect
[5]
  TRP-1 mRNA level: dose-dependent decrease
[6]
  TRP-2 mRNA level: dose-dependent increase
[7]
  Tyrosinase expression: not affected
[8]
  trypsin expression: increased expression of trypsin
[9]; 1 μM, twice daily, seven weeks
  lightening effect, L* change: +9.6 L*
[9]; 10 μM, twice daily, after six weeks, FIG. 7
  chromameter measurement of pigmentation: lightening effect
[9]; 10 μM, twice daily, seven weeks
  lightening effect, L* change: ~18 L* units
[9]; 1 and 10 μM, seven weeks, topical
  signs of irritation: No visible signs of irritation
[10]; 10 μM, FIG. 10B
  F&M histology: pigmentation: reduced pigmentation
[10]; 10, 50 and 250 μM, end of experiment
  H&E histology: irritation, inflammation, skin architecture: no irritation, inflammatory response or changes in skin architecture
[10]; 10, 50 and 250 μM, end of experiment, FIG. 10
  F&M histology: pigmentation of treated samples: reduced pigmentation in the treated samples, both in the basal layer and throughout the epidermis
[10]; 50 and 250 μM, FIGS. 10C, 10D
  F&M histology: pigmentation: lightest
[11]; FIG. 11C
  dendrites containing melanosomes within keratinocytes: easily identified within treated keratinocytes
[11]; relative to untreated controls, FIGS. 11A, 11B
  melanosome content and maturity within melanocytes: more melanosomes, but less mature melanosomes
[12]; compared to controls, FIGS. 11D, 11E, 11F
  melanosomes within keratinocytes: smaller and less pigmented
[12]; compared to untreated controls, FIGS. 11G, 11H
  melanosome distribution in skin: abnormal
[13]; 0, 10, 50 and 250 μM, FIG. 9
  chromameter readings (L*) during treatment course: A saturation effect is observed, which is a time and concentration dependent
[13]; 10 μM, twice daily, five days per week, eight weeks
  effect on skin pigmentation: visible lightening effect
[13]; 250 μM, eight weeks
  permanent damage to pigmentation machinery: does not induce a permanent damage
[13]; 250 μM, eight weeks, twice daily, five days a week, FIG. 12B
  depigmentation at end of treatment: All sites showed visible depigmentation
[13]; 250 μM, eight weeks, four weeks after end of treatment, FIG. 12E
  histological repigmentation: fully repigmented
[13]; 250 μM, eight weeks, one week post treatment
  histological repigmentation: repigmentation was demonstrated histologically
[13]; 250 μM, eight weeks, visual, fourth week post treatment
  reversal of depigmenting effect: complete reversal
[13]; 250 μM, eight weeks, visual, one and two weeks post treatment
  persistence of depigmenting effect after treatment: could be visualized at one and two weeks post treatment
[13]; 50 and 250 μM, by the eighth week, FIG. 8
  whitening effect of the two highest doses compared: similar
